The results in this text go back to the antibiotic and cytotoxicity screens of Wong et al. (2023).

The test system of one assay is HSkMC. Kind of assay: cytotoxicity call (relative viability < 0.9). The conditions noted are these: 10 µM.
The next assay relates to HepG2. Kind of assay: cytotoxicity call (relative viability < 0.9). To be noted: 10 µM.
Another assay relates to S. aureus RN4220. Kind of assay: growth inhibition call (relative growth <= 0.2). The conditions noted are these: 50 µM.

Molecules are shown by their SMILES. The list shows a part of the results.

With `C[C@@H]1CCCCO[C@H](CN(C)S(C)(=O)=O)[C@@H](C)CN([C@H](C)CO)C(=O)c2cc(NC(=O)Nc3ccc(C(F)(F)F)cc3)ccc2O1`, the cytotoxicity call in the assay on HSkMC and with HepG2 was “inactive” in each case. In the assay with S. aureus RN4220, the growth inhibition call is “inactive”.

For `C[C@H]1CN([C@@H](C)CO)C(=O)c2cc(NC(=O)Cc3ccccc3)ccc2O[C@@H]1CN(C)S(C)(=O)=O`, the cytotoxicity call in the assay on HSkMC and in the assay with HepG2 was “inactive” each time. In addition, the growth inhibition call in the assay with S. aureus RN4220 is “inactive”.

Consider `C[C@@H]1CCCCO[C@H](CN(C)Cc2ccc(C(F)(F)F)cc2)[C@H](C)CN([C@H](C)CO)C(=O)c2cc(NS(=O)(=O)c3ccccc3)ccc2O1`, for which the cytotoxicity call in the assay on HSkMC and with HepG2 was “inactive” throughout. For the same compound, the growth inhibition call with S. aureus RN4220 is “inactive”.

For the compound `C[C@H]1CN([C@@H](C)CO)C(=O)c2cc(NC(=O)Cn3cnnn3)ccc2O[C@H]1CN(C)Cc1ccccc1`, the cytotoxicity call in the assay on HSkMC and with HepG2 was “inactive” each time. For the same compound, in the assay with S. aureus RN4220, the growth inhibition call was “inactive”.

`O=C(C[C@@H]1CC[C@H]2[C@@H](COC[C@@H](O)CN2S(=O)(=O)c2cccc(Cl)c2)O1)NCc1ccc2c(c1)OCO2`: the cytotoxicity call in the assay with HSkMC and in the assay on HepG2 was “inactive” in each case. Also, in the assay on S. aureus RN4220, the growth inhibition call was “inactive”.

`O=C(C[C@@H]1C[C@@H]2c3cc(NS(=O)(=O)c4ccc(F)cc4)ccc3O[C@@H]2[C@@H](CO)O1)NCc1ccccn1`: the cytotoxicity call in the assay with HSkMC and with HepG2 was “inactive” each time. In the assay on S. aureus RN4220, the growth inhibition call is “inactive”.

Consider `COc1ccc(S(=O)(=O)Nc2cccc3c2O[C@H](CN(C)S(=O)(=O)c2ccc(F)cc2)[C@H](C)CN([C@H](C)CO)C3=O)cc1`, for which the cytotoxicity call in the assay on HSkMC and with HepG2 was “inactive” in each case. The growth inhibition call in the assay on S. aureus RN4220 was “inactive”.

As to `C[C@@H]1CN([C@@H](C)CO)C(=O)c2cc(NC(=O)Nc3cccc4ccccc34)ccc2O[C@@H]1CN(C)CC1CCCCC1`, the cytotoxicity call in the assay on HSkMC and with HepG2 was “inactive” in each case. The growth inhibition call with S. aureus RN4220 is “inactive”.

As for `C[C@H]1CN([C@@H](C)CO)C(=O)c2cc(NC(=O)Cn3cnnn3)ccc2O[C@@H]1CN(C)CC1CCCCC1`, the cytotoxicity call in the assay with HSkMC and in the assay on HepG2 was “inactive” in each case. Moreover, the growth inhibition call in the assay on S. aureus RN4220 is “inactive”.

For `C[C@@H]1CN([C@@H](C)CO)C(=O)c2cccc(NS(C)(=O)=O)c2O[C@@H]1CN(C)C(=O)NC1CCCCC1`, the cytotoxicity call in the assay on HSkMC and with HepG2 was “inactive” throughout. Also, in the assay on S. aureus RN4220, the growth inhibition call is “inactive”.

As to `C[C@H](CO)N1C[C@H](C)[C@@H](CN(C)Cc2ccccc2)OCCCC[C@H](C)Oc2ccc(NC(=O)Nc3ccccc3)cc2C1=O`, the cytotoxicity call in the assay with HSkMC and in the assay on HepG2 was “inactive” throughout. For the same compound, the growth inhibition call with S. aureus RN4220 was “inactive”.

Take `Cc1ccc(S(=O)(=O)N(C)C[C@@H]2Oc3cc(Br)ccc3S(=O)(=O)N([C@@H](C)CO)C[C@@H]2C)cc1`: the cytotoxicity call in the assay on HSkMC and with HepG2 was “inactive” each time. Moreover, the growth inhibition call in the assay with S. aureus RN4220 was “inactive”.

`C[C@@H]1CN([C@@H](C)CO)C(=O)c2cccc(NC(=O)c3ccc(-c4nccs4)cc3)c2O[C@@H]1CN(C)Cc1ccc(C(=O)Nc2ccccc2N)cc1`: the cytotoxicity call in the assay with HSkMC was “inactive”. The cytotoxicity call in the assay on HepG2 was “active”. Besides, the growth inhibition call in the assay with S. aureus RN4220 was “inactive”.

With `C[C@H](CO)N1C[C@H](C)[C@@H](CN(C)S(=O)(=O)c2ccccc2)OCCCC[C@H](C)Oc2ccc(NC(=O)Nc3ccc(C(F)(F)F)cc3)cc2C1=O`, the cytotoxicity call in the assay with HSkMC and in the assay with HepG2 was “inactive” each time. Moreover, in the assay on S. aureus RN4220, the growth inhibition call was “inactive”.

With `COc1ccc(S(=O)(=O)Nc2ccc3c(c2)C(=O)N([C@@H](C)CO)C[C@H](C)[C@@H](CN(C)C(=O)c2ccccc2)OCCCC[C@H](C)O3)cc1`, the cytotoxicity call with HSkMC and in the assay with HepG2 was “inactive” in each case. Further, the growth inhibition call in the assay with S. aureus RN4220 is “inactive”.

With `C[C@H](CO)N1C[C@H](C)[C@@H](CN(C)S(=O)(=O)c2cn(C)cn2)Oc2c(NC(=O)CCC(F)(F)F)cccc2C1=O`, the cytotoxicity call with HSkMC and in the assay with HepG2 was “inactive” throughout. Further, the growth inhibition call with S. aureus RN4220 was “inactive”.

Regarding `Cc1ccc(S(=O)(=O)N(C)C[C@@H]2Oc3ccc(NC(=O)Nc4ccc(C(F)(F)F)cc4)cc3CC(=O)N([C@H](C)CO)C[C@H]2C)cc1`, the cytotoxicity call in the assay on HSkMC and with HepG2 was “inactive” in each case. Further, the growth inhibition call in the assay on S. aureus RN4220 is “inactive”.

Turning to `COc1cccc(S(=O)(=O)N(C)C[C@@H]2OCc3cnnn3CCCC(=O)N([C@H](C)CO)C[C@H]2C)c1`, the cytotoxicity call in the assay with HSkMC and in the assay on HepG2 was “inactive” each time. Further, the growth inhibition call in the assay with S. aureus RN4220 was “inactive”.

As for `C=CC1CN2CCC1CC2C(O)c1ccnc2ccc(OC)cc12.O=C(O)C(O)C(O)C(O)C(O)CO` (stereo not drawn), the cytotoxicity call in the assay on HSkMC and with HepG2 was “inactive” throughout. Further, in the assay on S. aureus RN4220, the growth inhibition call is “inactive”.

Consider `Cc1ccccc1S(=O)(=O)N1C[C@H](O)COC[C@@H]2O[C@H](CC(=O)N3CCN(C)CC3)CC[C@H]21`, for which the cytotoxicity call in the assay on HSkMC and with HepG2 was “inactive” in each case. Further, the growth inhibition call with S. aureus RN4220 is “inactive”.

`C[C@H]1CN([C@@H](C)CO)C(=O)c2cc(NC(=O)Nc3ccc(C(F)(F)F)cc3)ccc2O[C@H]1CN(C)Cc1ccc2c(c1)OCO2`: in the assay with HSkMC, the cytotoxicity call is “inactive”. In the assay on HepG2, the cytotoxicity call was “active”. Further, the growth inhibition call in the assay with S. aureus RN4220 is “active”.

With `CCS(=O)(=O)Nc1ccc2c(c1)C(=O)N(C)[C@@H]1CC[C@@H](CC(=O)NCCCN3CCOCC3)O[C@H]1CO2`, the cytotoxicity call in the assay with HSkMC and with HepG2 was “inactive” each time. Moreover, in the assay with S. aureus RN4220, the growth inhibition call was “inactive”.

As to `C[C@@H]1CN([C@@H](C)CO)C(=O)c2cc(NS(=O)(=O)c3cccs3)ccc2O[C@@H](C)CCCCO[C@H]1CN(C)S(=O)(=O)c1cn(C)cn1`, the cytotoxicity call in the assay with HSkMC and in the assay with HepG2 was “inactive” throughout. Moreover, the growth inhibition call in the assay on S. aureus RN4220 was “inactive”.

Regarding `C[C@H](CO)N1C[C@H](C)[C@H](CN(C)Cc2ccc(-c3ccccc3)cc2)Oc2ccc(NC(=O)Nc3cccc4ccccc34)cc2C1=O`, the cytotoxicity call in the assay with HSkMC and in the assay with HepG2 was “active” in each case. For the same compound, the growth inhibition call in the assay with S. aureus RN4220 was “inactive”.

Take `CN1CCN(C(=O)C[C@@H]2CC[C@H]3[C@@H](COC[C@H](O)CN3C(=O)Nc3cc(Cl)cc(Cl)c3)O2)CC1`: the cytotoxicity call in the assay on HSkMC and in the assay on HepG2 was “inactive” each time. In addition, the growth inhibition call in the assay with S. aureus RN4220 was “inactive”.

With `O=C(O)/C=C\C(=O)Nc1cccc(C(=O)O)c1`, the cytotoxicity call in the assay on HSkMC (human skeletal muscle cells) and in the assay with HepG2 was “inactive” in each case. Further, the growth inhibition call in the assay on S. aureus RN4220 was “inactive”.
